# Assay results as given in PubChem BioAssay (NCATS).
# Several values for one entry are separate records, joined by “and”; a condition that tells them apart may be missing. Identical values can stand only once. Inconclusive results, whose numbers are uncertain, are shown with a selection of clear calls. Potencies of inconclusive entries are doubtful fits and often do not repeat. Activity calls are given as the source filed them. The call rests on the fitted dose curve; in most records, active means well fitted curve in the direction sought with a large enough effect; inconclusive means small, poorly fitted or top-dose-only effect, or another doubt; inactive means no such curve, though single readings can be large; an effect the other way counts as inactive or inconclusive.
# Tests used:
# [1] = Viability qHTS for spleen associated tyrosine kinase inhibitor (SYKi) naive MV4-11 cells (AID 1963823); details: MV4-11 AML viability, CellTiter-Glo luminescence, 72 h; series mostly up to 45 µM; further: nearly all actives have a fitted effect of over 40% in size
# In short: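 CellTiter-Glo luminescence, 10 min room-temperature incubation, gave viability. Cells: naive MV4-11 (500/well), treated 72 hr at 37 C, 5% CO2.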
# [2] = Quantitative highthroughput screen to assess conditional lethalithy of NOMO1 cells grown in RPMI1640 with dialyzed fetal bovine serum (RPMI+ds) (AID 1963877); further: nearly all actives have a fitted effect of over 30% in size
# In short: (§1)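 Each medium arm—HPLM with 10% dialyzed FBS, or RPMI1640 with 5 mM glucose and 10% untreated or dialyzed FBS—was screened against an 11-point, 3-fold compound titration for 48 h at 37 °C, with CellTiter-Glo luminescence as endpoint.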
# [3] = Quantitative highthroughput screen to assess conditional lethalithy of NOMO1 cells grown in Human Plasma-Like Medium with dialyzed fetal bovine serum (HPLM+ds) (AID 1963878); details: NOMO1 AML cells in HPLM+ds, CellTiter-Glo viability, 48 h; viability: at 45.8 µM (top of the series); further: nearly all actives have a fitted effect of over 35% in size
# In short: as §1
# [4] = Quantitative highthroughput screen to assess conditional lethalithy of P12 Ichikawa cells grown in Human Plasma-Like Medium with dialyzed fetal bovine serum (HPLM+ds) (AID 1963879); details: Potency: viability; further: nearly all actives have a fitted effect of over 35% in size
# In short: as §1
# [5] = Quantitative highthroughput screen to assess conditional lethalithy of P12 Ichikawa cells grown in RPMI1640 with dialyzed fetal bovine serum (RPMI+ds) (AID 1963880); details: Potency: P12-Ichikawa viability; further: nearly all actives have a fitted effect of over 35% in size
# In short: as §1
# [6] = Quantitative highthroughput screen to assess conditional lethalithy of P12 Ichikawa cells grown in RPMI1640 with untreated serum (RPMI+s) (AID 1963881); details: Potency: viability; further: nearly all actives have a fitted effect of over 35% in size
# In short: as §1
# [7] = Quantitative highthroughput screen to assess conditional lethalithy of SEM cells grown in Human Plasma-Like Medium with dialyzed fetal bovine serum (HPLM+ds) (AID 1963882); further: nearly all actives have a fitted effect of over 35% in size
# In short: as §1
# [8] = Quantitative highthroughput screen to assess conditional lethalithy of SEM cells grown in RPMI1640 with unreated serum (RPMI+s) (AID 1963883); details: SEM B-ALL cells, CellTiter-Glo viability, 48 h; viability: at 45.8 µM (top of the series); further: nearly all actives have a fitted effect of over 35% in size
# In short: as §1
# [9] = Quantitative highthroughput screen to assess conditional lethalithy of SEM cells grown in RPMI1640 with dialyzed fetal bovine serum (RPMI+ds) (AID 1963884); details: SEM B-ALL cells, RPMI+dialyzed FBS, CellTiter-Glo viability, 48 h; viability: at 45.8 µM (top of the series); further: nearly all actives have a fitted effect of over 35% in size
# In short: as §1
# [10] = Cellular viability qHTS for adrenocortical cancer (ACC) cell line SW-13 (AID 1963989); details: SW-13 ACC cells viability, CellTiter-Glo, 48 h; activity (max response): stronger effect = lower value; further: nearly all actives have a fitted effect of over 65% in size
# In short: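 Luminescent ATP read-out (CellTiter-Glo, 20 min at room temperature) measured metabolically competent SW-13 cells after 48 h compound treatment. Final concentrations spanned up to 46 uM; bortezomib served as positive control.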
# [11] = Cellular viability qHTS for adrenocortical cancer (ACC) cell line NCI-H295R (AID 1963990); details: CellTiter-Glo ATP luminescence, 48 h; series mostly up to 46.1 µM; further: nearly all actives have a fitted effect of over 60% in size
# In short: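 IC50 and maximal efficacy derive from four-parameter logistic modelling of titration curves, with reads scaled between DMSO-only wells (0%) and doxorubicin hydrochloride (100% inhibition). Compounds spanned up to 46 uM over 48 h.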
# Potency means the concentration at half of the fitted maximal effect; tags describe the fitted curve by direction and shape.
Compound,Potency [1],Potency [2],Potency [3],Potency [4],Potency [5],Potency [6],Potency [7],Potency [8],Potency [9],Potency [10],Potency [11]
CC1CCC(C(=O)N(c2cc(C#CC(C)(C)C)sc2C(=O)O)C2CCC(O)CC2)CC1 (stereo unspecified),"inconclusive: 18.6 µM [cytotoxic, partial curve]","inconclusive: 20.9 µM [cytotoxic, partial curve]",active: 5.26 µM,"inconclusive: 11.8 µM [cytotoxic, partial curve]","inconclusive: 13.2 µM [cytotoxic, partial curve]","inconclusive: 5.9 µM [cytotoxic, full curve]","inconclusive: 7.43 µM [cytotoxic, full curve]","inconclusive: 9.35 µM [cytotoxic, full curve]","inconclusive: 7.43 µM [cytotoxic, full curve]","inconclusive: 35.5 µM [cytotoxic, single point]","inconclusive: 35.5 nM [cytotoxic, full curve, poor fit]"
COc1ccc2c(OCc3nnc4ccc(-c5ccccc5)nn34)ccnc2c1,inactive,inactive,inactive,"inconclusive: 37.2 µM [cytotoxic, single point]",inactive,inactive,"inconclusive: 20.9 µM [cytotoxic, partial curve]",active: 11.8 µM,,,"inconclusive: 63.1 nM [rising, single point]"
CCn1nnc2c(N3CCOCC3)nc(-c3ccc(NC(=O)Nc4ccc(C(=O)N5CCN(C)CC5)cc4)cc3)nc21,active: 20.6 nM and active: 46.8 nM,"inconclusive: 0.0235 µM [cytotoxic, full curve, poor fit]","inconclusive: 0.0093 µM [cytotoxic, full curve, poor fit]","inconclusive: 0.0743 µM [cytotoxic, full curve, poor fit]","inconclusive: 0.0132 µM [cytotoxic, full curve, poor fit]","inconclusive: 0.0332 µM [cytotoxic, full curve, poor fit]","inconclusive: 0.0166 µM [cytotoxic, full curve, poor fit]","inconclusive: 0.0118 µM [cytotoxic, full curve, poor fit]","inconclusive: 0.0132 µM [cytotoxic, full curve, poor fit]","inconclusive: 0.141 µM [cytotoxic, full curve]",
CS(=O)(=O)CCNCc1ccc(-c2ccc3ncnc(Nc4ccc(OCc5cccc(F)c5)c(Cl)c4)c3c2)o1,"inconclusive: 23.7 µM [cytotoxic, single point] and active: 20.6 µM and active: 14.8 µM","inconclusive: 20.9 µM [cytotoxic, single point]","inconclusive: 18.7 µM [cytotoxic, partial curve, poor fit]",,active: 18.7 µM,active: 18.7 µM,"inconclusive: 18.7 µM [cytotoxic, partial curve]","inconclusive: 20.9 µM [cytotoxic, partial curve]",active: 23.5 µM,,active: 23.1 µM and active: 17.8 µM
Cc1ncc([N+](=O)[O-])n1CCO,inactive,inactive,inactive,inactive,,inactive,,,,,
CC(C)[C@@H](CS(=O)(=O)C(C)C)N1C(=O)[C@@](C)(CC(=O)O)C[C@H](c2cccc(Cl)c2)[C@H]1c1ccc(Cl)cc1,"inconclusive: 11.6 µM [cytotoxic, partial curve] and active: 18.6 µM",active: 2.09 µM,"inconclusive: 0.234 µM [cytotoxic, full curve]",,,active: 0.933 µM,,active: 0.295 µM,"inconclusive: 2.63 µM [cytotoxic, full curve]","inconclusive: 22.4 µM [cytotoxic, partial curve]","inconclusive: 35500 nM [cytotoxic, single point]"
O=c1cc(-c2ccccc2)oc2cc(O)c(O)c(O)c12,"inconclusive: 18.6 µM [cytotoxic, partial curve]","inconclusive: 9.35 µM [cytotoxic, single point]",inactive,,"inconclusive: 9.35 µM [cytotoxic, full curve]",,"inconclusive: 7.43 µM [cytotoxic, full curve]",active: 4.18 µM,,,"inconclusive: 35500 nM [cytotoxic, single point]"
NC(=NCCCCCCN=C(N)N=C(N)Nc1ccc(Cl)cc1)N=C(N)Nc1ccc(Cl)cc1,active: 2.35 µM,"inconclusive: 23.5 µM [cytotoxic, single point]","inconclusive: 20.9 µM [cytotoxic, partial curve, poor fit]",,,,"inconclusive: 20.9 µM [cytotoxic, partial curve]","inconclusive: 23.5 µM [cytotoxic, single point]","inconclusive: 20.9 µM [cytotoxic, partial curve]",active: 3.98 µM,
